# Test results reported in paper PMC9911399, “Two distinct binding modes provide the RNA-binding protein RbFox with extraordinary sequence specificity”.
# Substitutions are numbered along the chain they refer to; changes in the protein carry UniProt numbers. The list shows a part of the results.
# T1: RBFOX1 RRM (Homo sapiens, UniProt Q9NWB1 109-208)
# T1 sequence: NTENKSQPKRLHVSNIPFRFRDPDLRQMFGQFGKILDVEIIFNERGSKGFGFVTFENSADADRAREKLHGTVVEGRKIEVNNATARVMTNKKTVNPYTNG
# B1: AGGCAUU (DNA:RNA)
# RNA: GGGAGACCGGAAUUCAGAUUGUCCAGGCAUUUUAAAUCCCGUCGUAGCCACCA
# DNA 1: CAATCTGAATTCCGGTCTCCC
# DNA 2: TGGTGGCTACGACGGGATT
# B2: UAAUAGC (DNA:RNA)
# RNA: B1 RNA with A25U, G26A, G27A, C28U, U30G, U31C
# DNA 1: CAATCTGAATTCCGGTCTCCC
# DNA 2: TGGTGGCTACGACGGGATT
# B3: ACAAAUC (DNA:RNA)
# RNA: B1 RNA with G26C, G27A, C28A, U31C
# DNA 1: CAATCTGAATTCCGGTCTCCC
# DNA 2: TGGTGGCTACGACGGGATT
# B4: GCGCAGA (DNA:RNA)
# RNA: B1 RNA with A25G, G26C, U30G, U31A
# DNA 1: CAATCTGAATTCCGGTCTCCC
# DNA 2: TGGTGGCTACGACGGGATT
# B5: CUAAUGC (DNA:RNA)
# RNA: GGGAGACCGGAAUUCAGAUUGUCCCUAAUGCUUAAAUCCCGUCGUAGCCACCA
# DNA 1: CAATCTGAATTCCGGTCTCCC
# DNA 2: TGGTGGCTACGACGGGATT
# B6: GAAGAGG (DNA:RNA)
# RNA: B5 RNA with C25G, U26A, A28G, U29A, C31G
# DNA 1: CAATCTGAATTCCGGTCTCCC
# DNA 2: TGGTGGCTACGACGGGATT
# B7: CACGUAA (DNA:RNA)
# RNA: B5 RNA with U26A, A27C, A28G, G30A, C31A
# DNA 1: CAATCTGAATTCCGGTCTCCC
# DNA 2: TGGTGGCTACGACGGGATT
# B8: GCUUUUC (DNA:RNA)
# RNA: B5 RNA with C25G, U26C, A27U, A28U, G30U
# DNA 1: CAATCTGAATTCCGGTCTCCC
# DNA 2: TGGTGGCTACGACGGGATT
# B9: GCGGUAC (DNA:RNA)
# RNA: B5 RNA with C25G, U26C, A27G, A28G, G30A
# DNA 1: CAATCTGAATTCCGGTCTCCC
# DNA 2: TGGTGGCTACGACGGGATT
# B10: UUUAUCC (DNA:RNA)
# RNA: B5 RNA with C25U, A27U, G30C
# DNA 1: CAATCTGAATTCCGGTCTCCC
# DNA 2: TGGTGGCTACGACGGGATT
# B11: GUCCGGU (DNA:RNA)
# RNA: B1 RNA with A25G, G26U, G27C, A29G, U30G
# DNA 1: CAATCTGAATTCCGGTCTCCC
# DNA 2: TGGTGGCTACGACGGGATT
# B12: UAUCUAA (DNA:RNA)
# RNA: B1 RNA with A25U, G26A, G27U, A29U, U30A, U31A
# DNA 1: CAATCTGAATTCCGGTCTCCC
# DNA 2: TGGTGGCTACGACGGGATT
# B13: UGGGCCA (DNA:RNA)
# RNA: B1 RNA with A25U, C28G, A29C, U30C, U31A
# DNA 1: CAATCTGAATTCCGGTCTCCC
# DNA 2: TGGTGGCTACGACGGGATT
# B14: AUGGGGG (DNA:RNA)
# RNA: B1 RNA with G26U, C28G, A29G, U30G, U31G
# DNA 1: CAATCTGAATTCCGGTCTCCC
# DNA 2: TGGTGGCTACGACGGGATT
# B15: AUUGUCA (DNA:RNA)
# RNA: B5 RNA with C25A, A27U, A28G, G30C, C31A
# DNA 1: CAATCTGAATTCCGGTCTCCC
# DNA 2: TGGTGGCTACGACGGGATT
# B16: GAGUGUA (DNA:RNA)
# RNA: B1 RNA with A25G, G26A, C28U, A29G, U31A
# DNA 1: CAATCTGAATTCCGGTCTCCC
# DNA 2: TGGTGGCTACGACGGGATT
# B17: AAACGUA (DNA:RNA)
# RNA: B1 RNA with G26A, G27A, A29G, U31A
# DNA 1: CAATCTGAATTCCGGTCTCCC
# DNA 2: TGGTGGCTACGACGGGATT
# B18: CCUCCAC (DNA:RNA)
# RNA: B5 RNA with U26C, A27U, A28C, U29C, G30A
# DNA 1: CAATCTGAATTCCGGTCTCCC
# DNA 2: TGGTGGCTACGACGGGATT
# B19: GUGCACC (DNA:RNA)
# RNA: B1 RNA with A25G, G26U, U30C, U31C
# DNA 1: CAATCTGAATTCCGGTCTCCC
# DNA 2: TGGTGGCTACGACGGGATT
# B20: CAUAGUC (DNA:RNA)
# RNA: B5 RNA with U26A, A27U, U29G, G30U
# DNA 1: CAATCTGAATTCCGGTCTCCC
# DNA 2: TGGTGGCTACGACGGGATT
# Molecular target: T1, RBFOX1 RRM
# Test: EMSA; HiTS-Eq, 1 nM pool, 10 min; buffer printed only for the single-RNA assays: 10 mM Tris pH 7.5, 150 mM NaCl, 3.4 mM EDTA, 0.001% NP-40, 30 C
# Conditions: tags: His6 N-terminal (pET28a); label: 5' 32P
# Procedure, shortened: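 Purified RbFox RRM, wild type or mutant, was incubated for 10 min in 50 µL with 1 nM of a 5′-radiolabelled RNA pool carrying 7 randomized nucleotides, whose flanks were annealed to DNA oligonucleotides, over a series of increasing protein concentrations. Unbound RNA was resolved on 8% native PAGE, cut out, reverse-transcribed, barcoded by PCR and sequenced on an Illumina HiSeq 2500. Relative association constants were derived from changes in read counts for each RNA species versus the control reaction and normalised to the cognate motif.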
row,Binder,binding signal
1,B1,0.0115 KA relative to UGCAUGU
2,B2,0.00856 KA relative to UGCAUGU
3,B3,0.00194 KA relative to UGCAUGU
4,B4,0.0118 KA relative to UGCAUGU
5,B5,0.0102 KA relative to UGCAUGU
6,B6,0.0135 KA relative to UGCAUGU
7,B7,0.00147 KA relative to UGCAUGU
8,B8,0.0222 KA relative to UGCAUGU
9,B9,0.012 KA relative to UGCAUGU
10,B10,0.00741 KA relative to UGCAUGU
11,B11,0.0253 KA relative to UGCAUGU
12,B12,0.00583 KA relative to UGCAUGU
13,B13,0.0205 KA relative to UGCAUGU
14,B14,0.0141 KA relative to UGCAUGU
15,B15,0.00681 KA relative to UGCAUGU
16,B16,0.013 KA relative to UGCAUGU
17,B17,0.00208 KA relative to UGCAUGU
18,B18,0.000915 KA relative to UGCAUGU
19,B19,0.0178 KA relative to UGCAUGU
20,B20,0.00619 KA relative to UGCAUGU
